In PubChem BioAssay (NCI):
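Test compounds were applied to cells in 96-well plates for 48 hours at 5 doses. At the GI50, growth is halved. At the TGI there is no net growth.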

The compounds below were run on NCI-H322M lung (assay: NCI anticancer screen, dose series, 48 h).
`OC(c1ccccc1)(c1ccccc1)C1CCN(c2ccc3nnc(Cl)n3n2)CC1` showed a GI50 of 19.5 µM and a TGI of 57.4 µM.
Work on `Nc1n[nH]c2cccc(C#Cc3cccc(NC(=O)Nc4cc(C(F)(F)F)cc(C(F)(F)F)c4)c3)c12` yielded a GI50 of 3.48 µM and a TGI of 13 µM.
Compound `Clc1cccc(N/N=C/c2c[nH]c3ccccc23)n1` has a GI50 of 11.4 µM and a TGI of 25.4 µM.
With `Cc1ccc(C(=O)Nc2ccc(-n3ccnc3)c(C(F)(F)F)c2)cc1C#Cc1cnc2cccnn12` the GI50 was 3.4 µM and the TGI was over 45.8 µM.
Compound `C=CC[Se]C(=O)c1ccc(C(=O)[Se]CC=C)s1` has a GI50 of 0.11 µM and a TGI of 0.872 µM.
